Binding data for six molecules are collected here from PMC3447951.

In test [1] the target is T1, HYM1 (two-hybrid fusion) (N. crassa) (UniProt Q1K4S9).
T1 sequence: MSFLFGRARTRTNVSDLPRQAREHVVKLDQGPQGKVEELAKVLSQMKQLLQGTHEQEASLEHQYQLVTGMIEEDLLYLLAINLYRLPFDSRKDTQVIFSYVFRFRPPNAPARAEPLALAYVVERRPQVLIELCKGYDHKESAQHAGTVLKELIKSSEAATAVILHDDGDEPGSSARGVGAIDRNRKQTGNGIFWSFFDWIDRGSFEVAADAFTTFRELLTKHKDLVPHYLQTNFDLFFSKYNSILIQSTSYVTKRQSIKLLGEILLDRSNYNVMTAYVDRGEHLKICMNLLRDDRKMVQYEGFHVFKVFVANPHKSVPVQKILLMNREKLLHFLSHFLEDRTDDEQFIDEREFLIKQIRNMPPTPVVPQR
In words: two-hybrid; Matchmaker Two-Hybrid system 3 (Clontech); pGBKT7 (GAL4 DNA-binding domain) and pGADT7 (GAL4 activation domain) fusions co-expressed in S. cerevisiae AH109; growth on SD medium lacking adenine, histidine, leucine and tryptophane.

Test [2] addresses T2, HYM1-GFP (GFP-tagged HYM1 expressed ectopically at the his-3 locus) (N. crassa) (UniProt Q1K4S9).
T2 sequence: T1 sequence
Briefly: co-IP; anti-GFP immunoprecipitation from N. crassa cell extracts of myc-cot-1;HA-pod-6 + hym-1-gfp::his-3; blots for myc-COT1 and HA-POD6.

No constants are given. Whether binding was seen depends on the method and setting. For part of these data: Binding seen in cells or lysates may run through a third protein. Some entries that bind do so weakly or less than the wild type. Sequences can lack the tags named with a protein.

B1: COT1 (two-hybrid fusion) (enzyme, UniProt P38679 1-598)
chain: MDNTNRPHLNLGTNDTRMAPNDRTYPTTPSTFPQPVFPGQQAGGSQQYNQAYAQSGNYYQQNHNDPNTGLAHQFAHQNIGSAGRASPYGSRGPSPAQRPRTSGNSGQQQTYGNYLSAPMPSNTQTEFAPAPERNPDKYGPNANNNQKKCSQLASDFFKDSVKRARERNQRQSEMEQKLGETNDARRRESIWSTAGRKEGQYLRFLRTKDKPENYQTIKIIGKGAFGEVKLVQKKADGKVYAMKSLIKTEMFKKDQLAHVRAERDILAESDSPWVVKLYTTFQDANFLYMLMEFLPGGDLMTMLIKYEIFSEDITRFYIAEIVLAIDAVHKLGFIHRDIKPDNILLDRGGHVKLTDFGLSTGFHKLHDNNYYTQLLQGKSNKPRDNRNSVAIDQINLTVSNRAQINDWRRSRRLMAYSTVGTPDYIAPEIFTGHGYSFDCDWWSLGTIMFECLVGWPPFCAEDSHDTYRKIVNWRHSLYFPDDITLGVDAENLIRSLICNTENRLGRGGAHEIKSHAFFRGVEFDSLRRIRAPFEPRLTSAIDTTYFPTDEIDQTDNATLLKAQQAARGAAAPAQQEESPELSLPFIGYTFKRFDNNFR
Regarding B1, in test [1], the binding entry is on record as “binds”.

B2: myc-COT1 (enzyme, UniProt P38679 1-598)
chain: B1 chain
In the case of B2, the binding entry in test [2] is listed as “binds”.

B3: PAK kinase STE20/NCU03894 (two-hybrid fusion) (enzyme, UniProt Q7RZD3 1-954)
chain: MDGQLSLLSPTSSSSTSHSRKRLTKKQRPPSANHRTSSSFNVESLRIDAQSLDSKRSASSLRQGPNCNQSPSLARTVSVPVSVPSNAPAHTKASDLSLPRSHTTRSQSANRPYNPTQTIPTNRFILSPASSSQPQTQSPPYPSAVASTTVTSSRNKDTSKQYDPLDSCIGSFDQNKLSTDELIGAPFDGNAILSRIEATKLSAAPAPTSTTTIAHSNNISPRRVAPPPPPPPPALSRSNTDSKAARSSKPSKSPKSTISNKTMGASSFRHSASFSSAEQLPPSEKPSKSESSSSSNKRHSGDGKESRVPGMLRKKSGFSGFMNSLVGSPKKPLISAPENPVHVTHVGYDSNTGQFTGLPKEWQRLISESGITEKDRREHPQILVDVLTFYKETTEKPQEDQQLEKFHDARATDFRSPPVTGTAPLVLQTGVGYAHGPMSPMISPPASPRFPQVGHEGSFENPRAPPPVPKGPGPLPAKDINLIPSRPAPKPPAISTRPLVPPASLPAKDSGIGMPPPGDEAPMPYLPPKDNVQHMYQEEHRNRSRSNSRTNGAAPFSPVQASPLHPIATANQTAAYQQQLLQHQQEQAMAQAQAAMSGQLSRAASKRQQPTPPTSQHQHPRQPDINGAPRMPQTQGAAPQASARPRHRPRQSNAIDVVASLKRICSDGDPREIYRGFTKIGQGASGGVYTGHERGSNRLVAIKQMNLEQQPKKDLIINEILVMKESSHPNIVNFIDSYLCAGELWVVMEYMEGGSLTDVVTFNIMTEGQIASVCRETLRGLQHLHSKGVIHRDIKSDNILLSMEGNIKLTDFGFCATINEAQSKRTTMVGTPYWMAPEVVTRKEYGRKVDIWSLGIMAIEMIEGEPPYLTESPLRALWLIATNGTPHIKDEQSLSPVFRDFLYFALKVDPEKRASAHDLLRHDFMNKCVDLSTLAPLVRAAREARAQEKARKGQ
With B3, the binding result in test [1] is reported as “binds”.

B4: POD6 (two-hybrid fusion) (enzyme, UniProt V5IQR8 1-928)
chain: MATLSVYGSDFLTTTKKKAIEDAKKMQTVVAEECNKSGKEAPPYQLEELIGKGSFGRVYKATDNKSNAVVAVKIIDIEESDRENPRLADTYSEFMKETSALKLLSNSGAKNINLILDVLPVGQSMWLITEYCAGGSVATLMKPTAPGGLQEKWIIPILREVAEAIFWVHKEGIIHRDIKCANVLVTETGAVQLCDFGVAGIVETKFDKRSTFIGTPHWMAPELFEPTPSYSTPVDIWAFGSMVYEIASGLPPNVMSGFNIPQLGNYIKSHAPRLEGDQYSDNLKDLVAFCLVEDPAKRPTIEQVQRHPYIFNTSSEYPTASLSNLVRGYKVWEAQGGIRKSLFAPVGAQGPSDYASTALSNDEWNFSTTVDFDRMAMDSDAQAVYDVYGHNVDFDFDEEQTRRPKPKGRRRPPPPKLLALKAPLEKLFDPNTISGYNENSRAYYGLGPTSTSEAASAPEPPKDSDLNLRQYEPSSQAALRESLIDLDASFDGNDLSQFVDMETIKAGPRGSIDYAAFNPNPDFSKPPLSDPADMPMNINRRTQDWKFPSMAAPPASAHPEMSRFPWNEERSNDSHNDNFVRPPLIHHPTDPLGFQSTGYDSMPPKPPVDNRVSVGSLIDLDESLPMPTNDFTNREYTRPSTANSDAASVSGSEIGGANPFDLERHASLYQPLPVVRSSSVREPSIYVSDDSDYARVAQAPSEEHFIGTNGRGTPDYASSVNGGGSIGNGSIGGGSIGGGSIGSRTSSRAHSRADSYSYATDDDVGGYSAGEYAESEYLGGSMDPMAMSGEGRNRSRRRPSGMRPDPDSHHPPRGYGMGGSMNGNNGTGSHGGGHHGHQVHHGHGHGQYHGHGHGHSNSQGSTDMMHMPHVPEPPRVRVMQGMANREEVRDDVMRLLASFSEHLGFANAHVNTLPVRQGRRGSEVDTSV
For B4, the binding entry in test [1] was “binds”.

B5: HA-POD6 (enzyme, UniProt V5IQR8 1-928)
chain: B4 chain
Take B5: the binding result in test [2] was “binds”.

B6: MAK2 (two-hybrid fusion) (enzyme, UniProt V5IKE7 1-352)
chain: MSSAQRGGARKISFNVSEQYDIQDVVGEGAYGVVCSAVHKPSGQKVAIKKITPFDHSMFCLRTLREMKLLRYFNHENIISILDIQKPRSYETFNEVYLIQELMETDMHRVIRTQELSDDHCQYFIYQTLRALKAMHSANVLHRDLKPSNLLLNANCDLKVCDFGLARSAASQEDNSGFMTEYVATRWYRAPEIMLTFKEYTKAIDVWSVGCILAEMLSGKPLFPGKDYHHQLTLILDVLGTPTMEDYYGIKSRRAREYIRSLPFKKKVPFRTLFPNTSELALDLLEKLLAFNPVKRITVEEALKHPYLEPYHDPDDEPTAPPIPEEFFDFDKHKDNLSKEQLKQLIYQEIMR
With B6, the binding result in test [1] is “no binding”.
